Data from paper PMC4336329 (PLoS ONE, 2015).
Hit rate of the full screen: of about 310,000 compounds, about 14,000 (4.5%) showed an effect of 50% or more. The effect is printed as a negative number. The list shows a part of the results.

These compounds were tested against human ether-à-go-go-related gene (hERG) potassium channel (human, UniProt Q12809) (assay: primary screen, population patch clamp on CHO cells stably expressing hERG).
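Further: peak tail current of the secondary pulse compared with the same well before compound.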

Sequence of human ether-à-go-go-related gene (hERG) potassium channel (Q12809 whole entry, looked up): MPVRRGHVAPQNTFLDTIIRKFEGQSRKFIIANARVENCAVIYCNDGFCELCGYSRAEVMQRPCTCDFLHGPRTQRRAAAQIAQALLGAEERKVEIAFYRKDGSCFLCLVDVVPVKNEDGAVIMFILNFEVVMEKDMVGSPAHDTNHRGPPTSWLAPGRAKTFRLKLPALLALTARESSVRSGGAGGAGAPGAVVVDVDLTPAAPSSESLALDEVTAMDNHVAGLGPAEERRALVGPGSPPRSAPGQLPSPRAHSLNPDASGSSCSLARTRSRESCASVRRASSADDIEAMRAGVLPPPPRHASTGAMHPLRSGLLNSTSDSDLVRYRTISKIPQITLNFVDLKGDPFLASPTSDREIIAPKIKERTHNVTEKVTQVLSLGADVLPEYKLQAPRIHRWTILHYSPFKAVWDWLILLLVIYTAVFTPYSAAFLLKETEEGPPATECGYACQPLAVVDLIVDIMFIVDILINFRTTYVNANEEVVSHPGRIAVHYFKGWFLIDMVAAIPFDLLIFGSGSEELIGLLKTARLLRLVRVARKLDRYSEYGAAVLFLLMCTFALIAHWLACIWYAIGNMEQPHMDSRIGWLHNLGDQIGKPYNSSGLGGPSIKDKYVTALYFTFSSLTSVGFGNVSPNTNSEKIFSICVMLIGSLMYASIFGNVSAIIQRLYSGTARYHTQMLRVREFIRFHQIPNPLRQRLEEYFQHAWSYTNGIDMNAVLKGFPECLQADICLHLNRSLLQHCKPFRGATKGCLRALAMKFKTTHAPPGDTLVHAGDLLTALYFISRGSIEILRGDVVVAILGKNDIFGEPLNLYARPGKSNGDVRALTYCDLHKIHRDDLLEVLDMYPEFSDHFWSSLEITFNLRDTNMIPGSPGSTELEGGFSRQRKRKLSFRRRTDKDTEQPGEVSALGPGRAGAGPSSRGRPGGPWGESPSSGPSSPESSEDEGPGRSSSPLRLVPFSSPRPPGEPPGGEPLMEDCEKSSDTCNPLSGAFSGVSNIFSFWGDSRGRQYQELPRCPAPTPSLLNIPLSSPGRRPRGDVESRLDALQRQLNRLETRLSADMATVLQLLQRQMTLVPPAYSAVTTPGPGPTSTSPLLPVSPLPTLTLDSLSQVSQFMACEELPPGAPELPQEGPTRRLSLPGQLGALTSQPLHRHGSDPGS

Row | SMILES | hERG current change (%, negative = inhibition) at 10uM [%]
1 | O=C(CCC(=O)N1CCN(S(=O)(=O)c2ccc(Cl)cc2)CC1)NC1CCCc2ccccc21 (centres unmarked) | -52.6
2 | Cc1ccc(C)c(Nc2nc3c(S(=O)(=O)c4ccccc4)nnn3c3ccccc23)c1 | -3.68
3 | C/C=N\NC(=O)COc1cc(C)ccc1C | 14.4
4 | Cc1ccc(/C=N/NC(=O)C2(O)c3ccccc3-c3ccccc32)o1 | -0.955
5 | Cn1c(=O)c([N+](=O)[O-])c(NCC2CCCO2)c2ccccc21 (centres unmarked) | 0.511
6 | O=S(=O)(Nc1ccccc1)c1ccc(S(=O)(=O)N2CCCC2)cc1 | -26.7
7 | CCc1ccc(/C=C2/SC(=S)N(CCC(=O)Nc3ccc(C(=O)O)cc3)C2=O)cc1 | 12.5
8 | CN(CCCS(=O)(=O)[O-])c1ccc(/C=C/c2ccc3ccccc3[n+]2C)cc1 | 19.6
9 | CC(=O)Nc1ccc(C(=O)CSc2nnnn2C2CCCC2)cc1 | 0.223
10 | Cl.c1ccc(Cn2nnnc2CN2CCCC2)cc1 | 2.31
11 | Cc1cc(C)nc(N2CCC(C(=O)Nc3ccc4c(c3)OCCO4)CC2)n1 | 17.5
12 | O=C(CSc1ccc2nnc(CCNC(=O)c3ccc(F)cc3)n2n1)NCc1ccco1 | 12.9
13 | CCc1nc2ccccc2c(C(=O)Nc2ccc(C)cc2)c1C | 22.3
14 | CCCCC(=O)Nc1nnc(SCC(=O)NC2CCCC2)s1 | 17.2
15 | COc1ccc(OC)c(S(=O)(=O)NCc2cn3c(C)csc3n2)c1 | 0.79
16 | CC1(c2ccccc2Cl)NC(=O)N(CC(=O)NCCC2=CCCCC2)C1=O (centres unmarked) | 6.16
17 | COc1ccc(NC(=O)c2ccccc2NC(=O)CSc2ccccc2)cc1 | 22.7
18 | CC(=O)Nc1ccc(S(=O)(=O)N(C)CC(=O)OCC(=O)Nc2cccnc2Cl)cc1 | 5.81
19 | COc1ccc(NS(=O)(=O)c2ccc(NS(=O)(=O)c3cccs3)cc2)cc1 | 11.8
20 | COc1cccc(N2CCN(C(=O)c3ccc4nc(N5CCC(C)CC5)sc4c3)CC2)c1 | -10.9
21 | CC(C)C(=O)Nc1cccc(C(=O)Nc2ccc3c(c2)OCO3)c1 | -2.67
22 | NC(N)=N/N=C/c1ccc(N2CCOCC2)cc1.O=[N+]([O-])O | 6.58

Row | SMILES | hERG current change (%, negative = inhibition) at 10uM [%]
23 | CCC(Oc1cc(Cl)ccc1Cl)C(=O)N1CCCN(C)CC1 (centres unmarked) | 1.73
24 | Cc1ccc(N(C(=O)c2csnn2)C(C(=O)NCc2ccccc2)c2ccccn2)cc1 (centres unmarked) | -15.2
25 | CC(C)C(C(=O)O)N1C(=O)/C(=C/C=C/c2ccco2)SC1=S (centres unmarked) | 15.4
26 | CC(C)CCN1CCN(Cc2ccc(Sc3nncn3C)o2)CC1CCO (centres unmarked) | 7.49
27 | O=C(CN1C(=O)CCC1=O)Nc1nc(-c2ccccn2)cs1 | 19.8
28 | CC1CCN(CCOc2ccc(C(=O)c3ccccc3)cc2)CC1.O=C(O)C(=O)O | -47.5
29 | COC(=O)Cn1cc(/C=C2\C(=O)NC(=O)N(c3ccc(OC)cc3)C2=O)c2ccccc21 | 12.5
30 | CC1CCCC(C)N1/N=C/c1cccc(Br)c1 (centres unmarked) | -18.5
31 | O=C(COC(=O)c1cccc(Br)c1)Nc1ccc2[nH]c(=O)[nH]c2c1 | 18.3
32 | CN(C)c1cccc(C(=O)N/N=C/c2ccoc2)c1 | -8.11
33 | COC(=O)c1ccc(NC(=O)Cn2cnc3c(nnn3-c3cccc(OC)c3)c2=O)cc1 | 3.08
34 | CC(Sc1ccsc1[N+](=O)[O-])C(=O)NCc1ccccc1 (centres unmarked) | 20.1
35 | CCOc1ccc(NC(=O)CN2CCN(CC(=O)Nc3cc(OC)cc(OC)c3)CC2)cc1 | -74.9
36 | CCn1c(NC(C)=O)nc2ccccc21 | 11.9
37 | COc1ccc(S(=O)(=O)/N=C2/NC(=O)/C(=C\c3cc(OC)c(OC)cc3[N+](=O)[O-])S2)cc1 | 15.2
38 | CC(=O)Nc1ccc(OC(=O)c2cc3cc(Br)cc(Br)c3oc2=O)cc1 | 2.2
39 | Cc1ccc(NC(=O)CCSCCC(=O)Nc2ccc(C)c(C)c2)cc1C | -10
40 | CCN(CCNC(=O)C1CCCN(Cc2nc(-c3ccc(OC)cc3)oc2C)C1)c1ccccc1 (centres unmarked) | -28.1
41 | O=C(Nc1ncccc1O)C1CCN(S(=O)(=O)c2ccc3ccccc3c2)CC1 | -0.129
42 | CCc1ccc(CNC(=O)c2cc3c(C)nc4ccccc4c3o2)cc1 | -11.5
43 | CCC(=O)Nc1ccc(C(=O)NCCCn2ccnc2)cc1 | 22.8
44 | CC(=O)c1cccc(NC(=O)NNC(=O)CCC(=O)Nc2ccc(C)c(C)c2)c1 | 49.5
